Data: the RNAGym collection of RNA variant scans (doi:10.1093/nar/gkz1192)
Read counts are not given, so values of variants with three or more changes are uncertain.

B1: CPEB3 Ribozyme (parent)
chain: UAACAGGGGGCCACAGCAGAAGCGUUCACGUCGCAGCCCCUGUCAGAUUCUGGUGAAUCUGCGAAUUCUGCUGUAUAUCUC

Variants of: B1
Assay: self-cleavage, relative activity (ratio to wild type); higher = more cleavage; in vitro, sequencing
How it was run: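 Libraries of CPEB3 self-cleaving ribozyme mutants came from rounds of error-prone PCR and carried barcodes, which DNA sequencing matched to variants. In vitro transcription used T7 RNA polymerase at 37°C for 5 hours, with a further 15 min in DNase I before EDTA stopped the reaction; the ribozymes cleaved during both steps. The RNA was reverse transcribed with template switching and sequenced on Illumina. Relative activity is the cleaved/total read fraction of a variant divided by that of the unmutated ribozyme, averaged over three batches with at least 5 reads.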

Variant | self-cleavage
U1C A5U C23U G61A | 0.12
U1C A3G C12A U49C U51C U54C | 0.13
A2G A3G A64G | 0.73
U1C C12U A28G U60A | 0.32
U1C U26C U43A U51A | 0.27
U1C U25A U78C | 0.2
A2G A15G A35U A45G U78C | 0.11
U1C A5U A20G U26C G52U U58C | 0.5
U1C A13U U25A U66C | 0.06
U1C C29G U54C U60C | 0.05
U1C U25C A56G | 0.58
U1G G9U A28G | 0.07
U1C A3G U58C U78C U80C | 0.17
U1C A28G U31A C50U U80C | 0.07
A2G A5G A21C A28G | 0.21
U1C A5U U51A G61C | 0.52
U1C A21U U31C U54C A56G C71U | 0.04
U1C A15G U41C U51A U67C U72C | 0.14
U1C A28G U31A | 0.2
U1C C27U U41A G53C | 0.27
U1C G33A G42A A57G A77G | 0.28
U1C G7U C23G U51A U72A | 0.1
U1C A21G U54C | 0.62
A2G A15C U60C | 0.25

Variant | self-cleavage
U1C A18U C37U A45U A64G | 0.05
U1G U41C U76C | 1.02
U1C A15U U43C | 0.71
U1C G9A U25A U54C | 0
U1C C12U U48A G61C U66A | 0.16
U1C G9U A64U A65U | 0.12
U1C A13C U31C G33A A45U U49C | 0.08
U1C C17U U58C | 0.3
A2C A3G C17A C40U | 1.06
A2G A5U G6A G8U A15G U41C A56G | 0.35
A2C C23U A28G U41A U60C | 0.2
U1C A15U A35U U72C | 0.53
A2G A13U U43A U58C U66C | 0.13
U1C A5G A45G U80C | 0.93
U1G U25C U26C G30A | 0.42
U1C A18G U26C A28G U48C | 0.26
U1C A3G U25C | 0.67
A2C A18U A20G A28U | 0.12
U1C A15U U26C A45G U51C U58C | 0.49
U1C C11U A15G C32A U43A | 0.06
U1C U26C G33A | 0.17
U1C U25C U51A G63A A64C | 0.16
U1C U54C U67C U80C | 0.18
U1C U25C U69G | 0.21

Variant | self-cleavage
U1G G8U A20G A35U | 0.23
U1C A35G A47G | 1
U1C A15G U41C A64G G73A | 0.92
U1C A3U A20U U49C A64G | 0.11
U1C G36U U60G A64G | 0.16
U1C A35G G52A U72A | 1.25
U1C U51C A56C | 0.53
U1C A20G U43C U60A A65G | 0.05
A2G A3U G9A G24A C62U | 0.23
U1C A15U G24U U66G | 0.17
A2G A5U U25C A28U G63U C68A | 0.12
U1C A18G U26C A35G A64G U72C | 0.1
U1C C11G C14U C40U A56G A57G A64U | 0.03
U1C A5G A35G C40U A45G U54A | 0.32
U1G A18G A21U U48G C62U A77G U78C | 0.02
U1G C11G A21G U25A C38A U74A | 0.03
U1C A28U G53A | 0.77
U1C A21C U72A | 0.2
U1C A64U U66C U80A | 0.15
U1C A13U U25C A57G U69C | 0.24
U1C C32U C62A | 0.52
U1C C4G A28G A35G A65G | 0.95
U1C A15G U41C U43C | 0.43
U1C C23G U54A | 0.09

Variant | self-cleavage
U1C C11G C12G A28G U43C | 0.06
A2G A5G C29U A56G | 0.35
U1C A18G A56G U78C | 0.33
U1C G7A C29U C68A U69C U78C | 0.04
U1C A35U U51C G70C | 0.17
A2G A18U A21G A28C U60C A64G | 0.2
A2G A5C U41C | 0.62
U1C G22A A64G | 0.27
U1G A20G U26C G42A | 0.11
A2G A3G C39U | 0.74
U1C U25G U43C A56U A64G U72A | 0.04
A2G A18G A56G A57G U72C | 0.34
U1C G30U U31A A64U U78C | 0.05
U1G C34A A35G U41C U72C | 0.76
U1C A20G A57G U69A U72C | 0.23
A2G A5U G46U U60C A65U | 0.09
U1C U43A U60A U74C | 0.47
U1C A5G A20G U66G U76C U80C | 0.06
U1C U41C A56G | 0.76
U1C A15U U43C A65U U69C U72C | 0.15
U1C A13G U25C C37U A45U G70C U78C | 0.05
U1C A13G A35G U58C | 0.48
U1C G7C U26A U54C U78A | 0.04
U1C A21G A64U U78C | 0.07

Variant | self-cleavage
A2G A5U U31A C39U | 0.39
U1C C4U A28C A45U | 0.18
U1C U31C U51C U78A | 0.24
U1C U25A U74A U76A | 0.13
A2C C12A U25C A56G U72C U80C | 0.36
U1G A18G U25C U78C | 0.48
U1C U26C U41C U49C A57G U76A U80C | 0.08
U1G A13U G22A A35G A45G U54C | 0.27
U1C A5C G7U U78C | 0.32
U1G A5G A35G U80C | 1.12
A2C U43C G52A | 0.81
U1C U60A U69C | 0.18
U1C A28G U60A | 0.12
U1C A3U A18G U31C | 0.19
U1C A5G A21C | 0.13
A2G A3G A5U U26C U48A U72C | 0.26
U1C A5U G7C G19A U25A U49A A77G | 0.04
U1C C62A U69C | 0.35
U1C A35U U67C | 0.16
A2C G8A A35G U72C U74G | 0.35
U1C A18G G33A A35G C68U U72C | 0.19
A2G A3G U26C A28C U72A | 0.18
U1C G33U C38U U49A U54C U74C | 0.06
A2G A13G A28G A75U | 0.19

Variant | self-cleavage
U1C C11A U25A U66C U78A | 0.24
A2G A15G A56G | 0.48
U1C U41A U43C U76A | 0.37
U1G A47G G73A U78A U80A | 1.25
U1C C38A U78A | 0.26
U1C A5G G9A U43C U48C U54C U69A | 0.05
A2G A20C U80C | 0.43
A2C A21C U25G U54A G63U | 0.45
U1C A13G U41A U54C U58C | 0.08
A2G A5U A47G | 0.95
A2G A5G A20U U26C | 0.14
U1C U25A U54C | 0.37
A2G A13U A15G A20G A45G U76A | 0.06
U1C A20U A47G A56G | 0.3
A2G A13G A28C A56U | 0.38
U1C A5U U26C C38U G52U U67C | 0.2
U1C U51A U58C G61C U78C | 0.28
U1C C11G C12G A18G | 0.42
U1C U26C A35U U51A G52A C68A U76A | 0.04
U1C A5G U25C A35G U43C A47C | 0.56
U1C A13U A21U A45G U78C | 0.07
U1C G8U A18G C50A U67C | 0.09
A2C C39A A57G | 0.08
U1C A13U G24C A45G A75G | 0.03

Variant | self-cleavage
U1C A45G U54C U60A | 0.47
U1C U51C A57G U69C U80C | 0.31
A2G A15G A21G U66C A75C U78C | 0.67
U1C C11G U26A A47G U72A | 0.09
A2G A13G C29G A77U | 0.26
A2G A3U C11G U51A A56G U76A | 0.22
U1C A15G A18G U25C A28G | 0.63
A2G A18C U49C | 0.1
U1C A13G A15G A21G U31C U54C | 0.36
U1C A3G G9U U26C U43C | 0.01
U1C C12A U41C A56G C62G A65G | 0.15
A2C A15U A18G A35U U41G U66A | 0.07
U1C A18G A45U A56C U67C | 0.21
U1C A20U U54A | 0.35
A2G A3G A5U A13U A21G | 0.41
A2C A5G U25C A28G G52A | 0.14
U1C U51A U67C | 0.14
U1G A5U A13G C34U A35G U66A | 0.67
U1C U72A U78C | 0.66
U1C A13G A64U | 0.11
U1C G10A A35G U60C | 0.07
A2G A18G A35U | 0.11
U1C G10A A13G U41C A56G C59U | 0.23
